Assay results taken from patent publication US10172824B2, “Crystal forms of scutellarin aglycone and preparation thereof” (YUNNAN INSTITUTE OF MATERIA MEDICA, priority 2014, dated 2019).

Assay: Solubility of crystal forms in isopropanol
Type: physicochemical

## O=c1cc(-c2ccc(O)cc2)oc2cc(O)c(O)c(O)c12 [crystal form A, 5,6,7-trihydroxy-2-(4-hydroxyphenyl)-4H-benzopyran-4-one]
  solubility in isopropanol (rank order): crystal form A>crystal form D>crystal form E
